{"source": "the BET-seq Pho4 binding data (Le et al. 2018)", "note": "This is one part of the list. Values were computed here from the reads of four pooled replicates and scatter widely."}
{"target": "T1, Pho4 (S. cerevisiae) (UniProt P07270)", "T1 sequence": "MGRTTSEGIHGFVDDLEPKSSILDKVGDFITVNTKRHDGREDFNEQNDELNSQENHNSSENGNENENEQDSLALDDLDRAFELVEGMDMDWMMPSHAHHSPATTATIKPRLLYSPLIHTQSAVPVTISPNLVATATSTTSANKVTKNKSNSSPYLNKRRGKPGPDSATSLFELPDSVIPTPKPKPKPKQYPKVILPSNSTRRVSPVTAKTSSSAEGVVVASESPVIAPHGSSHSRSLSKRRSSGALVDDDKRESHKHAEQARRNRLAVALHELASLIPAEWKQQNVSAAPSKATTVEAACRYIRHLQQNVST", "assay": "relative binding free energy (BET-seq); higher = weaker binding", "conditions": "reference: library average", "units": {"relative binding free energy": "kcal/mol"}}
{"sequence": "TGCGACACGTGGGATA", "relative binding free energy": 0}
{"sequence": "TAGGGCACGTGACGTG", "relative binding free energy": -0.04}
{"sequence": "GTTTCCACGTGTGTAT", "relative binding free energy": 0.11}
{"sequence": "AGTAGCACGTGAGAGG", "relative binding free energy": 0.22}
{"sequence": "TTGTCCACGTGCAGTG", "relative binding free energy": 0.01}
{"sequence": "TAGATCACGTGTGTCA", "relative binding free energy": 0.25}
{"sequence": "TTTTACACGTGATGCG", "relative binding free energy": 0.22}
{"sequence": "CGGGGCACGTGTGCAG", "relative binding free energy": -0.13}
{"sequence": "ATGGGCACGTGGAATG", "relative binding free energy": -0.01}
{"sequence": "CTGATCACGTGAGGTG", "relative binding free energy": 0.33}
{"sequence": "CTACACACGTGGGGGG", "relative binding free energy": -0.11}
{"sequence": "TTCGCCACGTGGGGGT", "relative binding free energy": -0.25}
{"sequence": "TGCAGCACGTGTTTTA", "relative binding free energy": -0.11}
{"sequence": "CTCGACACGTGGTGGG", "relative binding free energy": -0.13}
{"sequence": "ATCTTCACGTGGAGTT", "relative binding free energy": 0.32}
{"sequence": "GGAGGCACGTGGTAAA", "relative binding free energy": -0.04}
{"sequence": "CTGTTCACGTGTGCGG", "relative binding free energy": 0.2}
{"sequence": "GTGTGCACGTGGTTGT", "relative binding free energy": -0.06}
{"sequence": "TATGACACGTGGAGGA", "relative binding free energy": 0.03}
{"sequence": "TTATACACGTGGTGCG", "relative binding free energy": -0.09}
{"sequence": "TAGTGCACGTGCGGCG", "relative binding free energy": -0.1}
{"sequence": "CGTGTCACGTGCTTTG", "relative binding free energy": 0.01}
{"sequence": "ACAGGCACGTGTGGAA", "relative binding free energy": -0.04}
{"sequence": "TGTTTCACGTGGGCGC", "relative binding free energy": 0.3}
{"sequence": "AGAAGCACGTGGAGGC", "relative binding free energy": -0.06}
{"sequence": "TGTAGCACGTGACGTT", "relative binding free energy": -0.01}
{"sequence": "TGGGTCACGTGAGGAT", "relative binding free energy": 0.28}
{"sequence": "TGTAGCACGTGAGGCC", "relative binding free energy": 0.18}
{"sequence": "GTGCTCACGTGTCGGG", "relative binding free energy": 0.22}
{"sequence": "TTGGTCACGTGAGAGT", "relative binding free energy": 0.32}
{"sequence": "TGGGTCACGTGGATAA", "relative binding free energy": 0.13}
{"sequence": "CTTGGCACGTGGTGGA", "relative binding free energy": -0.23}
{"sequence": "ATTTTCACGTGATGAG", "relative binding free energy": 0.43}
{"sequence": "GGTGGCACGTGGCACG", "relative binding free energy": -0.13}
{"sequence": "TTATACACGTGGGTCA", "relative binding free energy": -0.21}
{"sequence": "TGGGACACGTGGCGAT", "relative binding free energy": -0.09}
{"sequence": "TGTCCCACGTGAAGTG", "relative binding free energy": 0.29}
{"sequence": "GTTACCACGTGTTTTG", "relative binding free energy": 0.07}
{"sequence": "GTCGTCACGTGGGGTT", "relative binding free energy": -0.01}
{"sequence": "CGGTACACGTGGGTTG", "relative binding free energy": -0.08}
{"sequence": "ATTCGCACGTGGTGAG", "relative binding free energy": -0.17}
{"sequence": "GATAACACGTGGTGGT", "relative binding free energy": 0.11}
{"sequence": "TTTATCACGTGTTAGA", "relative binding free energy": 0.12}
{"sequence": "TGTTGCACGTGGAACT", "relative binding free energy": 0.02}
{"sequence": "ACTTGCACGTGGTTTC", "relative binding free energy": 0.04}
{"sequence": "GGCGACACGTGGTGTA", "relative binding free energy": -0.02}
{"sequence": "TGATTCACGTGCCGTG", "relative binding free energy": 0.19}
{"sequence": "TTCAGCACGTGGTAGT", "relative binding free energy": -0.17}
{"sequence": "CTTATCACGTGTGATT", "relative binding free energy": 0.24}
{"sequence": "CGTCTCACGTGTGTTG", "relative binding free energy": 0.19}
{"sequence": "TAAGGCACGTGTTGGG", "relative binding free energy": -0.07}
{"sequence": "TGGTACACGTGGCTAG", "relative binding free energy": -0.01}
{"sequence": "GTCTTCACGTGGGCTG", "relative binding free energy": 0.07}
{"sequence": "GAAGACACGTGTTGGA", "relative binding free energy": 0.07}
{"sequence": "TTGTGCACGTGGAAGA", "relative binding free energy": 0.01}
{"sequence": "GGTAGCACGTGGTAGT", "relative binding free energy": -0.04}
{"sequence": "TTCGACACGTGAAGTT", "relative binding free energy": 0.22}
{"sequence": "GGCGTCACGTGAGTGC", "relative binding free energy": 0.33}
{"sequence": "TGAAGCACGTGAGGGT", "relative binding free energy": 0.16}
{"sequence": "ATTATCACGTGACTGT", "relative binding free energy": 0.13}
{"sequence": "GTTGGCACGTGAGCTT", "relative binding free energy": 0.06}
{"sequence": "AGACGCACGTGGTGAG", "relative binding free energy": -0.11}
{"sequence": "GGAGACACGTGCTTGT", "relative binding free energy": -0.07}
